According to PubChem BioAssay AID686978 (National Center for Advancing Translational Sciences (NCATS), 2013):
Screen size: about 420,000 compounds; about 64,000 (15%) were called active. The shares of active, inactive and inconclusive entries below differ from those in the screen. Calls come from the whole dose curve; as a rule, active = well fitted inhibition curve with a large enough effect; inconclusive = small, poorly fitted or top-dose-only effect; inactive = flat fitted curve, though single readings scatter. Potencies of inconclusive entries are left out as doubtful fits.

Assay: qHTS for Inhibitors of human tyrosyl-DNA phosphodiesterase 1 (TDP1): qHTS in cells in absence of CPT; note: nearly all actives have a fitted effect of over 55% in size
Conditions: DT40 Tdp1-/- hTDP1 cells, no CPT, ATP luminescence, 48 h; activity change, negative = growth inhibition: at 46.2 µM (top of the series) unless noted
How it was run: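 Luminescent ATP content (CellTiter-Glo) served as the growth readout. Knockout chicken DT40 cells expressing human TDP1 were exposed to compounds without camptothecin for a minimum 48 hr at 37 °C.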
% is set by controls: 0 for no effect and ±100 for the full control effect; potency is the fitted concentration of half-maximal effect; tags give direction and shape of the fitted curve.

SMILES | Potency | activity change, negative = growth inhibition
COc1cccc(/C=N/NC(=O)c2cccc3ccccc23)c1OC | inconclusive [inhibitor, single point] | –
CC1=C(C(=O)OC2CCCCC2)C(c2ccc(N(C)C)cc2)NC(=O)N1 (stereo not given) | inconclusive [inhibitor, single point] | –
CSc1nnc(-c2ccco2)c(-c2ccco2)n1 | inconclusive [inhibitor, partial curve, poor fit] | –
Cc1[nH]c2ccccc2c1C(=O)CNc1ccc(Br)cc1 | inconclusive [inhibitor, single point] | –
COc1cc2c(cc1OC)C(c1cccc(Cl)c1)CC(=O)N2 (stereo not given) | inconclusive [inhibitor, single point] | –
O=C1NC(O)CCN1C1CC(O)C(CO)O1 (stereo not given) | – | inactive: -5.27%
CC1CCCN(C(=O)c2ccc3c(=O)n4nc(Nc5ccccc5)sc4nc3c2)C1 (stereo not given) | inconclusive [inhibitor, full curve, poor fit] | –
CN(C)c1ccc(Nc2ncnc3ccc(Br)cc23)cc1 | inconclusive [inhibitor, full curve, poor fit] | –
CC(C)N(CCc1ccncc1)C(=O)Nc1ccc(Cl)c(Cl)c1 | – | inconclusive: -34.5% [inhibitor]
Cc1cc(C(=O)CSc2nc3ccccc3o2)c(C)n1C1CC1 | active: 14.6 µM | –
CC(=O)CC(=O)Nc1ccc(Nc2ccccc2)cc1 | inconclusive [inhibitor, single point] | –
C=CCOC(=O)C1C(=O)CC(C)(O)C(C(=O)OCC=C)C1c1ccc(N(C)C)cc1 (stereo not given) | – | inactive: -4.16%
CCN(CC1CCCN(CCc2cccc(F)c2)C1)C(=O)c1cc(C)oc1C (stereo not given) | inconclusive [inhibitor, single point] | –
COc1cc2ccccc2cc1C(=O)N/N=C/c1ccc2c(c1)OCO2 | active: 2.59 µM | –
CCc1ccc(OCCSc2nc3ccccc3n2CC(=O)N2CCCCC2)cc1 | inconclusive [inhibitor, single point] | –
O=C(c1ccc(F)cc1)N1CCc2c([nH]c3ccccc23)C1c1ccc(Cl)cc1 (stereo not given) | inconclusive [inhibitor, single point] | –
CCOc1cccc(C(=O)Nc2cccc(C(C)=O)c2)c1 | inconclusive [inhibitor, partial curve] | –
COc1ccc(-n2c(C)c([N+](=O)[O-])c3ccc(O)c(CN4CCCCC4)c32)cc1 | inconclusive [inhibitor, partial curve] | –
COc1cccc(OC)c1C(=O)Nc1sc2c(c1C(N)=O)CCN(Cc1ccccc1)C2 | inconclusive [inhibitor, single point] | –
CCOC(=O)c1sc(=S)n(-c2ccccc2Cl)c1SC | inconclusive [inhibitor, partial curve] | –
O=C(Nc1ccccc1Cl)c1ccc(S(=O)(=O)NCC2CCCO2)cc1 (stereo not given) | – | inconclusive: -31.2% [inhibitor]
CC(C)COc1cccc(C(=O)Nc2ccc(S(=O)(=O)N3CCOCC3)cc2)c1 | inconclusive [inhibitor, single point] | –
O=[N+]([O-])c1cc(/C=N/O)ccc1Oc1ccccc1Cl | – | inactive: -13.5%

SMILES | Potency | activity change, negative = growth inhibition
O=C(NC(=S)Nc1ccc(NC(=O)c2cccs2)cc1)c1cc2ccccc2o1 | inconclusive [inhibitor, single point] | –
COc1ccc(CN(C)CC(=O)N(C)CC(=O)Nc2ccccc2Br)cc1F | inconclusive [inhibitor, single point] | –
CCCNC(=O)COc1coc(CN2CCN(c3ccccc3F)CC2)cc1=O | – | inactive: 11.3%
COc1cccc(CC(=O)N[C@@H](CCSC)c2nc3ccccc3[nH]2)c1 | inconclusive [inhibitor, single point] | –
CN(C)C(=O)c1ccc(NS(=O)(=O)c2ccc3c(c2)OCCO3)cc1 | inconclusive [inhibitor, single point] | –
Cn1c2ccccc2c2cc(/C=N/NC(=O)c3ccc(O)cc3O)ccc21 | inconclusive [inhibitor, single point] | –
Cc1nn(-c2nc(-c3ccccc3)cc(C(F)(F)F)n2)c(C)c1Cl | inconclusive [inhibitor, single point] | –
CCc1nn(C(CC)C(=O)NCc2ccc(OC)c(OC)c2)c(=O)c2cc3oc(C)cc3n12 (stereo not given) | active: 9.2 µM | –
COc1ccccc1N1CCN(c2ncnc3c2c(-c2ccccc2)cn3-c2cccc(Cl)c2)CC1 | inconclusive [inhibitor, single point] | –
CC(N)CCCC(C)(C)O (stereo not given) | – | inactive: -6.38%
CS(=O)(=O)c1ccc(NC(=O)CCN2C(=O)C3CC=CCC3C2=O)cc1 (stereo not given) | – | inactive: 5.24%
O=C(Nc1ccc2c(c1)OCCO2)c1ccc(Cl)cc1 | active: 20.6 µM | –
Cc1cc(NS(=O)(=O)c2ccc(NC(=O)c3ccc(Cl)cc3[N+](=O)[O-])cc2)no1 | – | inactive: -2.01%
O=C(O)c1ccc(CSc2nc3ccccc3c(=O)n2-c2ccccc2)cc1 | – | inactive: -7.98%
COc1ccc(CCC(=O)Nc2ccc(C)c([N+](=O)[O-])c2)cc1 | – | inactive: -25.5%
O=c1[nH]nnc2c1ncn2C1OC(CO)C(O)C1O (stereo not given) | inconclusive [inhibitor, single point] | –
COc1cc(/C=C(\C#N)c2nc3ccc(C)cc3[nH]2)ccc1OCc1ccc(C)cc1 | active: 8.2 µM | –
COC(=O)c1cc2sccc2n1CC(=O)Nc1cccc(SC)c1 | inconclusive [inhibitor, partial curve] | –
COc1cccc(OC)c1C(=O)NCCc1sc(-c2cccc(F)c2)nc1C | inconclusive [inhibitor, partial curve] | –
Cc1ccc(SCCC(=O)NNC(=O)c2ccccc2F)cc1 | – | inactive: -28.9%
CCCCNC(=O)c1cccc(NC(=O)c2nsc3ccccc23)c1 | inconclusive [inhibitor, single point] | –
CCN(C(=O)c1cn(-c2cccc(OC)c2)c(=O)c2ccccc12)c1ccccc1C | inconclusive [inhibitor, single point] | –
